Test results: PubChem BioAssay AID686979 (National Center for Advancing Translational Sciences (NCATS), 2013)
Among all 420,000 compounds or so, about 50,000 (12%) were called active. This list was built around the results that the source calls inconclusive (neither active nor inactive); the mix of calls is not that of the screen. Calls come from the whole dose curve; as a rule, active = well fitted inhibition curve with a large enough effect; inconclusive = small, poorly fitted or top-dose-only effect; inactive = flat fitted curve, though single readings scatter. No potency is given beside an inconclusive call; the fits are too rough.

Experiment: qHTS for Inhibitors of human tyrosyl-DNA phosphodiesterase 1 (TDP1): qHTS in cells in presence of CPT; note: nearly all actives have a fitted effect of over 55% in size
Conditions: chicken DT40 Tdp1-/-;hTDP1 cells + 20 nM CPT, ATP luminescence, 48 h; activity change, negative = growth inhibition: at 46.2 µM (top of the series) unless noted
Summary of the method: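 Chicken DT40 Tdp1-/- cells complemented with human TDP1, 400 cells/well, exposed to compounds plus 20 nM camptothecin for at least 48 h at 37 C; viability read as ATP content by CellTiter-Glo luminescence.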
% is set by controls: 0 for no effect and ±100 for the full control effect; potency is the fitted concentration of half-maximal effect; tags give direction and shape of the fitted curve.

SMILES	Potency	activity change, negative = growth inhibition
O=S(=O)(c1ccc(F)cc1)N1CCN(CC(O)COc2ccccc2F)CC1 (stereo not drawn)	inactive	
CN1CCN(C2=C(Cl)C(=O)N(c3cccc(Cl)c3)C2=O)CC1	inactive	
CC(C)(C)n1nnnc1C(c1cccnc1)N(Cc1ccccc1)Cc1cccs1 (stereo not drawn)	inconclusive [inhibitor, single point]	
O=C(Nc1ccc(O)c2c(=O)cc(-c3cccc(Cl)c3)oc12)c1ccccc1Cl	inconclusive [inhibitor, single point]	
CC(NC(=O)C1CCOCC1)c1nnc2n1CCN(Cc1ccc3ccccc3c1)CC2 (stereo not drawn)		inactive: 14.9% [at 9.04 µM]
CSc1nc2ccc(NC(=O)C3=NN(c4ccccc4)C(=O)CC3)cc2s1	inconclusive [inhibitor, single point]	
Cc1cc2oc(C(=O)N(Cc3ccc(N(C)C)cc3)CC3CCCO3)c(C)c2cc1Cl (stereo not drawn)	inconclusive [inhibitor, single point]	
COC(=O)C1C(=O)C2=C(CC1C)NC(C)=C(C(=O)OC1CCCCC1)C2c1ccc(N(C)C)cc1 (stereo not drawn)	inconclusive [inhibitor, single point]	
CN1C(=O)Cc2cc(S(=O)(=O)CCC(=O)N3CCN(c4ccc(Cl)cc4)CC3)ccc21	active: 20.6 µM	
Cc1ccc(CSCC(=O)N2CCOCC2)cc1	active: 6.51 µM	
O=C(CSc1ccc(-c2cccnc2)nn1)Nc1ccccc1F		inconclusive: -33.3% [inhibitor]
CCCSc1nc2sc3c(c2c(=O)n1CC)CC(C)(C)OC3	inconclusive [inhibitor, partial curve, poor fit]	
CCc1ccc(N2CC(C(=O)Nc3ccc(S(=O)(=O)N4CCOCC4)cc3)CC2=O)cc1 (stereo not drawn)	inconclusive [inhibitor, single point]	
N#Cc1ccccc1OCC(=O)Nc1cccc(S(=O)(=O)N2CCCCCC2)c1	inconclusive [inhibitor, single point]	
CC(C)CN(Cc1c(O)ccc2c(=O)c(-c3ccccc3)coc12)CC(C)C	active: 5.17 µM	
COc1ccc(C(=O)N/N=C/C(=O)c2ccccc2)cc1	inactive	
N#CC1(c2ccccc2)CCN(S(=O)(=O)c2ccc(OC(F)(F)F)cc2)CC1	inactive	
COc1ccccc1N1CCN(C(=O)c2cc(-c3cccc(Cl)c3)on2)CC1	inconclusive [inhibitor, single point]	
Cc1noc(C)c1NC(=O)N(C)C[C@H]1OCCCC[C@@H](C)Oc2ccc(NC(=O)c3ccccc3)cc2C(=O)N([C@H](C)CO)C[C@@H]1C	inconclusive [inhibitor, single point]	
O=C(NCc1ccc2c(c1)OCO2)c1n[nH]c(=O)c2ccccc12	inconclusive [inhibitor, full curve]	
COc1ccc(NC2=C(Cl)C(=O)N(CCc3ccccc3)C2=O)cc1	inconclusive [inhibitor, single point]	
CCOc1ccc2nc(NC(=S)N(C)C)sc2c1	active: 1.3 µM	
CCOC(=O)C1CC2=C(CCCC2=O)NC1=O (stereo not drawn)	inactive	

SMILES	Potency	activity change, negative = growth inhibition
CCOC(=O)[C@@H]1[C@H]2COc3cc(OC)ccc3[C@H]2N2C(=O)N(c3ccc(OC)cc3)C(=O)[C@]12C	inconclusive [inhibitor, single point]	
COc1ccc(CN2CCCC(n3cc(C(=O)N4CCCCC4)nn3)C2)c(OC)c1C (stereo not drawn)		inactive: 11.2% [at 9.04 µM]
COC(=O)c1c(-c2cccs2)csc1NC(=O)c1cccnc1	active: 16.4 µM	
CN1CCN(S(=O)(=O)c2cccc(C(=O)Nc3sc4c(c3C(N)=O)CCCC4)c2)CC1	inconclusive [inhibitor, single point]	
O=C(COC(=O)CN1C(=O)C2CCCCC2C1=O)Nc1c(Cl)cccc1Cl (stereo not drawn)	inconclusive [inhibitor, single point]	
CC(=O)Nc1cccc(NC(=O)CSc2nccn2C2CCCC2)c1	inconclusive [inhibitor, single point]	
COc1ccc(C2/C=C\CN(C(=O)CC(C)(C)C)CC(=O)N2Cc2ccc(F)cc2)cc1 (stereo not drawn)	inconclusive [inhibitor, single point]	
Cc1cccc(OCC(=O)NCCCNC(=O)c2ccccn2)c1	inactive	
O=S(=O)(Nc1ccc(N2CCOCC2)cc1)c1c(F)cc(F)cc1Br	inactive	
O=C(Nc1ccc(F)cc1)c1ccc(CN2CCc3ccccc3C2)cc1	inactive	
COc1cccc(CNC(=O)CSc2nc(=O)n(Cc3ccncc3)c3c2CCC3)c1	inactive	
COc1ccc(/C=C2\NC(=S)N(CC3CCCO3)C2=O)c(OC)c1 (stereo not drawn)	inconclusive [inhibitor, single point]	
CCC(C(=O)NC1CCCC1)n1c(-c2ccccn2)nc2ccccc21 (stereo not drawn)	active: 7.31 µM	
CC(=NNc1nc2ccccc2s1)c1ncccn1	inactive	
c1ccc(CCNc2nc(-c3ccccn3)cs2)cc1	inconclusive [inhibitor, single point]	
CCCCOC(=O)Nc1ccc(C(=O)OCCC)cc1	inconclusive [inhibitor, partial curve]	
O=C(Cc1ccc(Br)cc1)Nc1cccc(Cl)c1	inconclusive [inhibitor, single point]	
O=C1CC[C@@H]2CC3(C[C@@H]4CCN1[C@H]24)Nc1ccccc1NC3=NC1CCCCC1 (stereo partly drawn)		inconclusive: -34.7% [inhibitor]
Cc1ccc(CNC(=O)c2cc3c(-c4ccc(Cl)cc4)nn(C)c3s2)o1	inconclusive [inhibitor, single point]	
Cc1ccc(OCc2nc(C#N)c(NCCc3ccccc3)o2)cc1	inconclusive [inhibitor, single point]	
O=C(c1cc(Br)ccc1O)N(Cc1ccco1)Cc1cccs1	inconclusive [inhibitor, single point]	
CCOc1cc(S(=O)(=O)N2CCN(Cc3ccccc3)CC2)ccc1Br	inconclusive [inhibitor, single point]	
Cc1ccccc1NC(=O)CSC1=Nc2ccccc2C2=NC(Cc3ccccc3)C(=O)N12 (stereo not drawn)	inconclusive [inhibitor, single point]	

SMILES	Potency	activity change, negative = growth inhibition
CC(=O)Nc1c(Cl)c(Cl)c2c(c1Cl)Cc1cc(Cl)ccc1-2	inconclusive [inhibitor, single point]	
Cc1cn([C@H]2C[C@H](O)[C@@H](CNCc3ccccc3)O2)c(=O)[nH]c1=O	inactive	
CCn1c(NCc2cc(Br)ccc2NS(=O)(=O)c2ccc(C)cc2)nc2ccccc21	inconclusive [inhibitor, single point]	
Cc1cc(C(=O)Nc2c(F)c(F)c(F)c(F)c2F)n(-c2ccccc2)n1	inconclusive [inhibitor, partial curve, poor fit]	
C=CCN(CC=C)S(=O)(=O)c1ccc(C(=O)Nc2nnc(CSC)o2)cc1	inconclusive [inhibitor, single point]	
O=C(NCCCN1CCOCC1)c1c(-c2ccccc2)sc2ccccc12	inconclusive [inhibitor, single point]	
O=C(Cn1cnc2ccccc2c1=O)NNC(=O)c1cccc([N+](=O)[O-])c1	inactive	
COc1ccc(N2CCN(C(=O)CCCn3c(=O)[nH]c4cc(Cl)ccc4c3=O)CC2)cc1	inconclusive [inhibitor, partial curve, poor fit]	
COC(=O)c1ccc2c(=O)n3nc(Nc4cc(OC)ccc4OC)sc3nc2c1	inconclusive [inhibitor, single point]	
COc1ccc(NC(=O)C2=NN(c3ccccc3)C(=O)CC2)cn1	inconclusive [inhibitor, single point]	
COc1cc(Cn2c3ccc(NC(=O)CC(C)(C)C)cc3c(=O)n2C)ccc1F	inconclusive [inhibitor, single point]	
COc1ccc(Cl)cc1NC(=O)CSc1nnc2[nH]c(=O)cc(-c3ccccc3)n12	inactive	
O=C(O)Cn1c(=O)n(Cc2ccccc2)c2ccccc21	inactive	
Cc1ccc2[nH]c(=O)c3cc(C(=O)N(CCCOC(C)C)Cc4ccco4)sc3c2c1	active: 23.1 µM	
O=C(Nc1cccc(-c2cscn2)c1)C1CCN(Cc2ccsc2)CC1	inconclusive [inhibitor, single point]	
COc1ccc(C2=NCCc3cc(OC)c(OC)cc32)cc1	inconclusive [inhibitor, partial curve, poor fit]	
O=C(Cc1cccc2ccccc12)Nc1nc(-c2cccc([N+](=O)[O-])c2)cs1	inconclusive [inhibitor, single point]	
CC(C)CNc1ncnc2c1ncn2[C@H]1CN(Cc2ccc3c(c2)OCO3)C[C@@H](CO)O1	inconclusive [inhibitor, partial curve]	
C(=N/N1CCN(c2ccccc2)CC1)/c1ccncc1	inconclusive [inhibitor, single point]	
COc1ccc(-n2nnnc2SCC(=O)Nc2nc3c(s2)CCCC3)cc1	inconclusive [inhibitor, single point]	
Cc1cc(NC(=O)COC(=O)C2CSC3(C)CCC(=O)N23)ccc1Br (stereo not drawn)	inconclusive [inhibitor, single point]	
CCOC(=O)N1CCN(C(=O)CSCC(=O)N=c2sc3cc(OC)ccc3n2C)CC1	inconclusive [inhibitor, single point]	
